Hit rate of the full screen: of about 310,000 compounds, about 2,200 (0.71%) showed an effect of 50% or more. The effect is printed as a negative number. Some of the results follow.
Biological target: human ether-à-go-go-related gene (hERG) potassium channel (human, UniProt Q12809)
Test: primary screen, population patch clamp on CHO cells stably expressing hERG

Sequence of human ether-à-go-go-related gene (hERG) potassium channel (Q12809 whole entry, looked up): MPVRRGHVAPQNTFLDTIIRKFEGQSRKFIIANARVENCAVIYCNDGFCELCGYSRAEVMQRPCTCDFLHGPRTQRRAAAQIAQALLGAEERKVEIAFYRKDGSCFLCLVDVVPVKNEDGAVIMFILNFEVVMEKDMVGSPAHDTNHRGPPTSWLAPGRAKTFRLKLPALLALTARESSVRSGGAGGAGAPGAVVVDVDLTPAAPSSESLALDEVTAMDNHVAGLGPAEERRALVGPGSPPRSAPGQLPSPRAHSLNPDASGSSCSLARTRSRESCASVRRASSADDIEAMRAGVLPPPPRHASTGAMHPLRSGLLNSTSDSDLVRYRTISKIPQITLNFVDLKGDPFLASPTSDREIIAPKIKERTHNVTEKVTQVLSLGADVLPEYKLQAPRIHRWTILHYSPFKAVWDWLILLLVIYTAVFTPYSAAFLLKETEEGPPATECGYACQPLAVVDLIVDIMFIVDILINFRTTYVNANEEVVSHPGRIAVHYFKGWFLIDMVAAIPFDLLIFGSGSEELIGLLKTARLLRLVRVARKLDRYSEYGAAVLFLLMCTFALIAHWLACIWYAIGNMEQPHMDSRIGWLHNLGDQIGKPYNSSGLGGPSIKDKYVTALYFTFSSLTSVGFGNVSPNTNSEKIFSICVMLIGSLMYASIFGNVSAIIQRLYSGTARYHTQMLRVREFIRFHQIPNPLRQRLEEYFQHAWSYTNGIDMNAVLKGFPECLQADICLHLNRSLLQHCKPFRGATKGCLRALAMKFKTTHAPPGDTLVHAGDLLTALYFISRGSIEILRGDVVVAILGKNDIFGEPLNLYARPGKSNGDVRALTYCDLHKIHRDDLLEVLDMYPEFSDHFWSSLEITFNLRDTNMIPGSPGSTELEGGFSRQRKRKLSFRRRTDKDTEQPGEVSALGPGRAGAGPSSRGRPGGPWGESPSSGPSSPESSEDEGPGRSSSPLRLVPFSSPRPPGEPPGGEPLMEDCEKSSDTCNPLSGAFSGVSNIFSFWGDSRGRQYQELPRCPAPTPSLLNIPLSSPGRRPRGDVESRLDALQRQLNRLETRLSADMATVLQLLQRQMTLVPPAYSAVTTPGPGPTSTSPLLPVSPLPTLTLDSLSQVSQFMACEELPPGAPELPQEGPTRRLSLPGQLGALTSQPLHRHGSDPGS

Compared with CCOC(=O)c1ccccc1NS(=O)(=O)c1cnn(CC)c1C, Cc1cccc(NC(=O)CNC(=O)COC(=O)CCS(=O)(=O)c2ccccc2)c1C is higher in “hERG current change (%, negative = inhibition) at 1uM” value: 4.74% for the first, 12.3% for the second.

Compared with CC(C)N1CCC(n2nccc2NC(=O)c2ccc3c(c2)OCO3)CC1, COc1ccc(C(=O)N(C)Cc2ccon2)cc1OC1CCN(C(C)C)CC1 is higher in “hERG current change (%, negative = inhibition) at 1uM” value: 12% for the first, 14.7% for the second.

Going from COc1ccccc1OCCN1CSC(=S)N(C)C1 to COc1ccccc1N(CC1CO1)S(=O)(=O)c1ccc(C)cc1 (stereo not drawn), the “hERG current change (%, negative = inhibition) at 1uM” value rises from 3.62% to 12.3%.

First: CCOc1ccccc1NC(=O)c1cccc(S(=O)(=O)N(Cc2ccccc2)c2ccccc2OC)c1
Second: COC(=O)C(=Nc1ccccc1)/C(C(=O)C(=O)N(C)c1ccccc1)=C(\O)c1ccccc1
The “hERG current change (%, negative = inhibition) at 1uM” value of the first is lower: 6.89% for the first, 19.5% for the second.

Going from Cl.Nc1ncnc2nc[nH]c12 to CCOC(=O)c1cnn(-c2ncnc3sc(C)c(C)c23)c1N, the “hERG current change (%, negative = inhibition) at 1uM” value rises from 8.3% to 12.8%.

Going from Cc1cccnc1NC(=O)c1ccc(S(=O)(=O)N2CCCCC2)cc1 to CC(Oc1ccccc1)C(=O)Nc1ccc(S(=O)(=O)N2CCCC2)cc1 (stereo not drawn), the “hERG current change (%, negative = inhibition) at 1uM” value rises from 13% to 16.8%.

First: COc1cc(/C=N/NC(=S)NCc2ccco2)cc(OC)c1OC
Second: COc1ccc(OC)c(NC(=O)CSc2nc3cccnc3n2C)c1
The “hERG current change (%, negative = inhibition) at 1uM” value of the first is higher: 16.8% for the first, 4.28% for the second.

Going from Cc1ccccc1NC(=O)N1CCCN(c2ccc(C#N)cn2)CC1 to O=C(O)c1ccccc1C(=O)N1CCN(c2cccc(Cl)c2)CC1, the “hERG current change (%, negative = inhibition) at 1uM” value rises from 7.61% to 12.5%.

Going from CCN(CC)S(=O)(=O)c1ccc(Oc2ccc(S(=O)(=O)N(CC)CC)cc2)cc1 to CCOc1ccc(N(CC(=O)NCCSCc2ccc(C)cc2)S(C)(=O)=O)cc1, the “hERG current change (%, negative = inhibition) at 1uM” value rises from 3.98% to 13.4%.

Going from CC(CCc1ccccc1)NC(=O)CCN1N=C(c2ccccc2)CCC1=O (stereo not drawn) to O=C(O)C/C=C(\NC(=O)OCc1ccccc1)C(=O)OCc1ccccc1, the “hERG current change (%, negative = inhibition) at 1uM” value rises from 4.68% to 11.1%.

First: Cc1ccc(NC(=O)CCc2c(C)nn(-c3ccc(N4CCCCC4)nn3)c2C)cc1
Second: O=C(Nc1ccccc1N1CCCCC1)C1CC(=O)N(c2ccccc2F)C1 (stereo not drawn)
The “hERG current change (%, negative = inhibition) at 1uM” value of the first is lower: 5.83% for the first, 6.17% for the second.

First: COC(=O)C1=C(c2cccc(OCc3ccccc3)c2)C[C@@H]2CC[C@H]1N2C(=O)NCc1cccc(OC)c1
Second: COc1ccc(CCNC(=O)C(=O)NCC2CCCN2S(=O)(=O)c2ccccc2)cc1 (stereo not drawn)
The “hERG current change (%, negative = inhibition) at 1uM” value of the first is higher: 8.65% for the first, -3.28% for the second.

First: C=C(C)CNC(=S)NNC(=O)CCn1c2ccccc2c2ccccc21
Second: CCCN1C(=O)C(O)(c2c(C)[nH]c3ccccc23)c2ccccc21 (stereo not drawn)
The “hERG current change (%, negative = inhibition) at 1uM” value of the first is lower: -2.86% for the first, 12.6% for the second.

Going from CC(OC(=O)c1cnc(Cl)c(Cl)c1)C(=O)NCc1ccccc1 (stereo not drawn) to FC(F)(F)c1cnc(Oc2cccc3ccccc23)c(Cl)c1, the “hERG current change (%, negative = inhibition) at 1uM” value rises from 0.333% to 6.39%.

Going from CC1CCN(CC(=O)Nc2ccccc2Sc2ccccc2)CC1 to CSc1ccc(/C=N/N2CCN(Cc3ccccc3)CC2)cc1, the “hERG current change (%, negative = inhibition) at 1uM” value rises from 0.0629% to 18.7%.

Compared with CC(C)CCn1cnc2c1c(=O)[nH]c(=O)n2Cc1ccccc1, O=c1[nH]c2sc3c(c2c(=O)n1Cc1ccccc1)CCC3 is lower in “hERG current change (%, negative = inhibition) at 1uM” value: 13.7% for the first, -8.86% for the second.

Going from C/C(=N\NC(=O)Cn1nc(C)c([N+](=O)[O-])c1C)c1ccc(Cl)s1 to CN(C)S(=O)(=O)c1ccc(Cl)c(C(=O)NC2=NCCS2)c1, the “hERG current change (%, negative = inhibition) at 1uM” value rises from 8.79% to 14%.

Going from CCCCCn1c(N)c(C(=O)NCc2cccs2)c2nc3ccccc3nc21 to CCN(CC)CCNC(=O)c1cc(Sc2nnc(C)s2)nc2ccccc12, the “hERG current change (%, negative = inhibition) at 1uM” value falls from -2.17% to -4.56%.

Going from O=C(c1ccco1)N1CCN(C23CC4CC(CC(C4)C2)C3)CC1 to CC(C)(C)c1ccc(C(=O)N2CCN(C(=O)c3ccco3)CC2)cc1, the “hERG current change (%, negative = inhibition) at 1uM” value rises from -6.2% to 9.19%.

First: CCOc1ccccc1N1C(=O)NC(=O)/C(=C/c2ccc3c4c(cccc24)CC3)C1=O
Second: COc1ccc(N2CCN(C(=O)Cn3c(=O)[nH]c4ccccc4c3=O)CC2)cc1
The “hERG current change (%, negative = inhibition) at 1uM” value of the first is lower: 3.58% for the first, 6.77% for the second.

Going from O=c1[nH]c2ccc(NCc3ccccc3OCc3ccc(Cl)cc3)cc2[nH]1 to COc1ccc(CCNC(=O)c2cc(=O)[nH]c3ccccc23)cc1, the “hERG current change (%, negative = inhibition) at 1uM” value rises from 9.98% to 16.2%.

Going from O=C(N/N=C/c1cccs1)c1cc(-c2ccc3ccccc3c2)n[nH]1 to O=C(Nc1ccc2oc(-c3ccncc3)nc2c1)c1ccccc1F, the “hERG current change (%, negative = inhibition) at 1uM” value falls from 9.9% to 7.55%.

Going from O=C(NCN1C(=O)C2C3C=CC(C3)C2C1=O)OC1CCCCC1 (stereo not drawn) to O=C(CCN1C(=O)C2CC=C(Cl)CC2C1=O)N1CCCCC1 (stereo not drawn), the “hERG current change (%, negative = inhibition) at 1uM” value rises from 9.06% to 12.1%.

Compared with N#Cc1nc(Cc2ccccc2)oc1NCc1ccccc1Cl, CCCc1nc(NCc2ccc3c(c2)OCO3)c2nnn(Cc3ccccc3Cl)c2n1 is higher in “hERG current change (%, negative = inhibition) at 1uM” value: -2.46% for the first, 10.1% for the second.

Compared with CC1Cc2ccccc2N1S(=O)(=O)c1cccs1 (stereo not drawn), COc1cc(NC(=O)CN(C)S(=O)(=O)c2ccc3c(c2)CC(C)N3C(C)=O)cc(OC)c1 (stereo not drawn) is higher in “hERG current change (%, negative = inhibition) at 1uM” value: 6.91% for the first, 12.7% for the second.

Going from Fc1ccc(-n2c(-c3ccc4ccccc4n3)n[nH]c2=S)cc1Cl to CSCC[C@H](NC(=O)C(C)(C)Oc1ccc(Cl)cc1)c1nc2ccccc2[nH]1, the “hERG current change (%, negative = inhibition) at 1uM” value rises from 6.07% to 11.4%.

Going from O=C(Nc1ccccc1Cl)OCc1cncs1 to COC(=O)c1cc2c(=O)c3ccccc3oc2nc1C, the “hERG current change (%, negative = inhibition) at 1uM” value rises from 10.9% to 14.9%.

Compared with CC(=O)Oc1ccc2oc(=O)c3c(c2c1)CCCN3C(=O)CN1CCOCC1, CC(=O)Oc1ccc2nc(-c3ccc(Br)o3)oc(=O)c2c1 is higher in “hERG current change (%, negative = inhibition) at 1uM” value: 3.94% for the first, 12.8% for the second.

Compared with COC/C=C/C1=CC2=CC(=O)C(C)(OC(=O)c3cnc4ccccc4n3)C(=O)C2=CN1C(CO)CO (stereo not drawn), COC(=O)c1nnn(-c2nonc2N)c1CSc1nc2ccccc2o1 is higher in “hERG current change (%, negative = inhibition) at 1uM” value: 9.62% for the first, 13.8% for the second.

First: C/C=C/CSc1nc2c(c(=O)[nH]c(=O)n2C)n1Cc1ccc(C)cc1
Second: Cc1ccc(CCNC(=O)CCNS(=O)(=O)c2ccc3c(c2)oc(=O)n3C)cc1
The “hERG current change (%, negative = inhibition) at 1uM” value of the first is higher: 5.82% for the first, -2.63% for the second.

Compared with c1cc2c(cc1[C@H]1OC[C@H]3[C@@H]1CO[C@@H]3c1ccc3c(c1)OCO3)OCO2, COc1cccc(C(=O)Nc2nc(-c3ccc4c(c3)OCO4)cs2)c1 is higher in “hERG current change (%, negative = inhibition) at 1uM” value: -0.141% for the first, 4.4% for the second.

Going from CSCC[C@H](NC(=O)CC(C)(C)C)c1nc2ccccc2[nH]1 to CCNC(=O)N1CCC(c2nc3ccccc3s2)CC1, the “hERG current change (%, negative = inhibition) at 1uM” value rises from -10.2% to 12%.

Compared with Cc1sc2c(c1C)C(=O)/C(=C\Nc1ccncc1)S(=O)(=O)N2C, Cc1cc(C)cc(N2C(=O)CN(Cc3sccc3C)C2=S)c1 is lower in “hERG current change (%, negative = inhibition) at 1uM” value: 11.8% for the first, 9.99% for the second.

Compared with CCC(C)NC(=O)CSc1nc(-c2cccs2)cc(C(F)(F)F)n1 (stereo not drawn), Cc1cc(NC(=O)CSc2[nH]c(=O)cc(C(F)(F)F)c2C#N)no1 is lower in “hERG current change (%, negative = inhibition) at 1uM” value: 12.6% for the first, 5.76% for the second.

Going from Cc1nnc(SCC(=O)N2CCN(C(=O)c3ccco3)CC2)n1-c1ccccc1 to CCC(=O)N1CCc2cc(S(=O)(=O)CCC(=O)N3CCN(c4ccc(C(C)=O)cc4)CC3)ccc21, the “hERG current change (%, negative = inhibition) at 1uM” value rises from 9.13% to 16%.

Compared with COc1ccc(CN(CCC#N)C(=S)NC(=O)c2ccccc2)cc1, CN(Cc1ccccc1F)C(=O)COc1ccc(C(=O)c2ccccc2)cc1 is lower in “hERG current change (%, negative = inhibition) at 1uM” value: 13% for the first, 12.4% for the second.

Going from FC(F)c1nnc2c(Cl)cc(C(F)(F)F)cn12 to Clc1ccc(CSc2nnc(-c3ccncc3)s2)cc1, the “hERG current change (%, negative = inhibition) at 1uM” value rises from 10.8% to 11.7%.

First: COc1ccc(-c2nnc(SC(C)C(=O)NNC(=O)c3ccc(C)cc3)o2)cc1 (stereo not drawn)
Second: COc1ccc(/C(N)=N/OC(=O)Cc2ccc(C)cc2)cc1
The “hERG current change (%, negative = inhibition) at 1uM” value of the first is higher: 13.4% for the first, 9.75% for the second.

Compared with COc1cc(NS(=O)(=O)c2ccc(NC(=S)NC(=O)CC(C)C)cc2)nc(OC)n1, CCC(C)NS(=O)(=O)c1ccc(NC(=O)C2CCCO2)cc1 (stereo not drawn) is lower in “hERG current change (%, negative = inhibition) at 1uM” value: 20.7% for the first, 11% for the second.

First: COc1ccc(-n2c(COc3ccc(C)cc3)nnc2SCc2ccc(C#N)cc2)cc1
Second: Cc1ccc(S(=O)(=O)/N=C(/Nc2c(C)n(C)n(-c3ccccc3)c2=O)c2ccc(Cl)cc2)cc1
The “hERG current change (%, negative = inhibition) at 1uM” value of the first is higher: -3.44% for the first, -13% for the second.

Compared with COc1ccc(C(C(=O)NC2CCCCC2)N(C(=O)c2snc(C(N)=O)c2N)c2ccc(OC)cc2OC)cc1 (stereo not drawn), Cc1nc2ccc(NC(=O)c3cc(S(=O)(=O)N(C)c4ccccc4)ccc3Cl)cc2s1 is lower in “hERG current change (%, negative = inhibition) at 1uM” value: 7.41% for the first, 3.43% for the second.

Compared with Cc1ccc(S(=O)(=O)NC23CC4CC(CC(C4)C2)C3)cc1, Cc1ccc(S(=O)(=O)c2cc3c(=O)n4ccccc4nc3n(CC3CCCO3)c2=N)cc1C (stereo not drawn) is higher in “hERG current change (%, negative = inhibition) at 1uM” value: 1.31% for the first, 9.33% for the second.

First: Cc1cc(C(C)(C)C)cc(C)c1COC(=O)C1CCC(=O)N1 (stereo not drawn)
Second: CCCSc1nc2sc3c(c2c(=O)n1CC)CC(C)(C)OC3
The “hERG current change (%, negative = inhibition) at 1uM” value of the first is lower: 6.28% for the first, 7.58% for the second.

For CCN(Cc1ccncc1)C(=O)c1ccco1, the “hERG current change (%, negative = inhibition) at 1uM” value was 17.7%.

— paper PMC4336329 (PLoS ONE, 2015)
